# Reference: patent publication US11366114B2, “Genetically encoded fluorescent sensors for detecting ligand bias and intracellular signaling through cAMP pathways” (MONTANA MOLECULAR LLC, priority 2013, dated 2022)
# Test system: cAMP
# Test: Fluorescence response of cAMP sensors to isoproterenol in HEK 293 cells co-expressing the beta adrenergic receptor
# Type: cell-based, human
# Settings: in response to isoproternol
# How it was run: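 HEK 293 or HEK 293T cells were transiently co-transfected with sensor construct and beta adrenergic receptor, then imaged 24-48 h later in DPBS at 25 °C. Green fluorescence change (488/530 nm in plate reader) was recorded after isoproterenol, DMSO, forskolin or IBMX addition, background-subtracted.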
row,Molecule,Relative Change in Fluorescence [%]
1,"EcpG10 G2N-G1C: cAMP sensor; SEQID 26 in Table 1, SEQ ID NO: 27 in Table 3 (protein) MVAAHAAHSSSSAEWIACLDKRPLERSSEDVDIIFTRLKEVKAFEKFHPNLLHQICLCGYYENLEKGITLFRQGDIGTNWYAVLAGSLDVKVSETSSHQDAVTICTLGIGTAFGESILDNTPRHATIVTRESSELLRIEQKDFKALWEKYRQYMAGLLAPPYGVMETGSNNDRIPDKENTPLIEPHVPLRPANTITKVPSEKILRAGKILRNAILSRAPHMIRDRKYHLKTYRQCCVGTELVDWMMQQTPCVHSRTQAVGMWQVLLEDGVLNHVDQEHHFQDKYLFYRFLDDEHEDAPLPTEEEKKECDEELQDTMLLLSQMGPDAHMRMILRKPPGQRTVDDLEIIYEELLHIKALSHLSTTVKRELAGVLIFESHAKGGTVLFNQGEEGTSWYIILKGSVNVVIYGKGVVCTLHEGDDFGKLALVNDAPRAASIVLREDNCHFLRVDKEDFNRILRDVEANTVRLKEHDQDVLVLEKVPAGNRASNQGNSQPQQKYTVMSGTPEKILEHFLETIRLEATLNEATDSVLNDFIMMHCVFMPNTQLCPALVAHYHAQPSQGTEQEKMDYALNNKRRVIRLVLQWAAMYGDLLQEDDVSMAFLEEFYVSVSDDARMIAALKEQLPELEKIVKQISEDAKAPQKKHKVLLQQFNTGDERAQKRQPIRGSDEVLFKVYCMDPTYTTIRVPVATSVKEVISAVADKLGSGEGLIIVKMSSGGEKVVLKPNDVSVFMTLTINGRLFACPREQFDSLTPLPEQEGPTVGTVGTFELMSSKDLAYQMTIYDWELFNCVHELELIYHTFGRHNFKKTTANLDLFLRRFNEIQFWVVTEICLCSQLSKRVQLLKKFIKIAAHCKEYKNLNSFFAIVMGLSNVAVSRLALTWEKLPSKFKKFYAEFESLMDPSRNHRAYRLTVAKLEPPLIPFMPLLIKDMTFTHEGNKTFIDNLVNFEKMRMIANTARTVRYYRSQPFNPDAAQANKNHQDVRSYVRQLNVIDNQRTLSQMSHRLEPRRPLENVYIKADKQKNGIKANFKIRHNIEDGGVQLAYHYQQNTPIGDGPVLLPDNHYLSVQSILSKDPNEKRDHMVLLEFVTAAGITLGMDELYKGGTGGSMVSKGEELFTGVVPIQVELDGDVNGHKFSVSGEGEGDATYGKLTLKFICTTGKLPVPWPTLVTTLTYGVQCFSRYPDHMKQHDFFKSAMPEGYIQERTIFFKDDGNYKTRAEVKFEGDTLVNRIELKGIDFKEDGNILGHKLEYNTRREYKLVVLGSGGVGKSALTVQFVQGIFVEKYDPTIEDSYRKQVEVDAQQCMLEILDTAGTEQFTAMRDLYMKNGQGFALVYSITAQSTFNDLQDLREQILRVKDTDDVPMILVGNKCDLEDERVVGKEQGQNLARQWNNCAFLESSAKSKINVNEIFYDLVRQINRKTPVPGKARKKSSCQLL",−28
2,Library 2-1 G12: cAMP sensor protein; SEQ ID NO: 2 in Tables 1 and 3 (protein) MVAAHAAHSSSSAEWIACLDKRPLERSSEDVDIIFTRLKEVKAFEKFHPNLLHQICLCGYYENLEKGITLFRQGDIGTNWYAVLAGSLDVKVSETSSHQDAVTICTLGIGTAFGESILDNTPRHATIVTRESSELLRIEQKDFKALWEKYRQYMAGLLAPPYGVMETGSNNDRIPDKENTPLIEPHVPLRPANTITKVPSEKILRAGKILRNAILSRAPHMIRDRKYHLKTYRQCCVGTELVDWMMQQTPCVHSRTQAVGMWQVLLEDGVLNHVDQEHHFQDKYLFYRFLDDEHEDAPLPTEEEKKECDEELQDTMLLLSQMGPDAHMRMILRKPPGQRTVDDLEIIYEELLHIKALSHLSTTVKRELAGVLIFESHAKGGTVLFNQGEEGTSWYIILKGSVNVVIYGKGVVCTLHEGDDFGKLALVNDAPRAASIVLREDNCHFLRVDKEDFNRILRDVEALENVYIKADKQKNGIKANFKIRHNIEDGGVQLAYHYQQNTPIGDGPVLLPDNHYLSVQSILSKDPNEKRDHMVLLEFVTAAGITLGMDELYKGGTGGSMVSKGEELFTGVVPIQVELDGDVNGHKFSVSGEGEGDATYGKLTLKFICTTGKLPVPWPTLVTTLTYGVQCFSRYPDHMKQHDFFKSAMPEGYIQERTIFFKDDGNYKTRAEVKFEGDTLVNRIELKGIDFKEDGNILGHKLEYNTRKEDFNRILRDVEANTVRLKEHDQDVLVLEKVPAGNRASNQGNSQPQQKYTVMSGTPEKILEHFLETIRLEATLNEATDSVLNDFIMMHCVFMPNTQLCPALVAHYHAQPSQGTEQEKMDYALNNKRRVIRLVLQWAAMYGDLLQEDDVSMAFLEEFYVSVSDDARMIAALKEQLPELEKIVKQISEDAKAPQKKHKVLLQQFNTGDERAQKRQPIRGSDEVLFKVYCMDPTYTTIRVPVATSVKEVISAVADKLGSGEGLIIVKMSSGGEKVVLKPNDVSVFMTLTINGRLFACPREQFDSLTPLPEQEGPTVGTVGTFELMSSKDLAYQMTIYDWELFNCVHELELIYHTFGRHNFKKTTANLDLFLRRFNEIQFWVVTEICLCSQLSKRVQLLKKFIKIAAHCKEYKNLNSFFAIVMGLSNVAVSRLALTWEKLPSKFKKFYAEFESLMDPSRNHRAYRLTVAKLEPPLIPFMPLLIKDMTFTHEGNKTFIDNLVNFEKMRMIANTARTVRYYRSQPFNPDAAQANKNHQDVRSYVRQLNVIDNQRTLSQMSHRLEPRRP,73
3,EcpG10 G2-RasGEF-T2: Best Upward Sensor; SEQ ID NO: 1 in Tables 1 and 3 (protein) MGSNNDRIPDKENTPLIEPHVPLRPANTITKVPSEKILRAGKILRNAILSRAPHMIRDRKYHLKTYRQCCVGTELVDWMMQQTPCVHSRTQAVGMWQVLLEDGVLNHVDQEHHFQDKYLFYRFLDDEHEDAPLPTEEEKKECDEELQDTMLLLSQMGPDAHMRMILRKPPGQRTVDDLEIIYEELLHIKALSHLSTTVKRELAGVLIFESHAKGGTVLFNQGEEGTSWYIILKGSVNVVIYGKGVVCTLHEGDDFGKLALVNDAPRAASIVLREDNCHFLRVDKEDFNRILRLVSHNVYIKADKQKNGIKANFKIRHNIEDGGVQLAYHYQQNTPIGDGPVLLPDNHYLSVQSILSKDPNEKRDHMVLLEFVTAAGITLGMDELYKGGTGGSMVSKGEELFTGVVPIQVELDGDVNGHKFSVSGEGEGDATYGKLTLKFICTTGKLPVPWPTLVTTLTYGVQCFSRYPDHMKQHDFFKSAMPEGYIQERTIFFKDDGNYKTRAEVKFEGDTLVNRIELKGIDFKEDGNILGHKLEYNFNNPDVEANTVRLKEHDQDVLVLEKVPAGNRASNQGNSQPQQKYTVMSGTPEKILEHFLETIRLEATLNEATDSVLNDFIMMHCVFMPNTQLCPALVAHYHAQPSQGTEQEKMDYALNNKRRVIRLVLQWAAMYGDLLQEDDVSMAFLEEFYVSVSDDARMIAALKEQLPELEKIVKQISEDAKAPQKKHKVLLQQFNTGDE,110
4,Lib2-1 G12-RasGEF-T2: cAMP sensor protein; SEQ ID NO: 3 in Tables 1 and 3 (protein) MGSNNDRIPDKENTPLIEPHVPLRPANTITKVPSEKILRAGKILRNAILSRAPHMIRDRKYHLKTYRQCCVGTELVDWMMQQTPCVHSRTQAVGMWQVLLEDGVLNHVDQEHHFQDKYLFYRFLDDEHEDAPLPTEEEKKECDEELQDTMLLLSQMGPDAHMRMILRKPPGQRTVDDLEIIYEELLHIKALSHLSTTVKRELAGVLIFESHAKGGTVLFNQGEEGTSWYIILKGSVNVVIYGKGVVCTLHEGDDFGKLALVNDAPRAASIVLREDNCHFLRVDKEDFNRILRDVEALENVYIKADKQKNGIKANFKIRHNIEDGGVQLAYHYQQNTPIGDGPVLLPDNHYLSVQSILSKDPNEKRDHMVLLEFVTAAGITLGMDELYKGGTGGSMVSKGEELFTGVVPIQVELDGDVNGHKFSVSGEGEGDATYGKLTLKFICTTGKLPVPWPTLVTTLTYGVQCFSRYPDHMKQHDFFKSAMPEGYIQERTIFFKDDGNYKTRAEVKFEGDTLVNRIELKGIDFKEDGNILGHKLEYNTRKEDFNRILRDVEANTVRLKEHDQDVLVLEKVPAGNRASNQGNSQPQQKYTVMSGTPEKILEHFLETIRLEATLNEATDSVLNDFIMMHCVFMPNTQLCPALVAHYHAQPSQGTEQEKMDYALNNKRRVIRLVLQWAAMYGDLLQEDDVSMAFLEEFYVSVSDDARMIAALKEQLPELEKIVKQISEDAKAPQKKHKVLLQQFNTGDE,74
